From paper PMC11995724, “Antibiotic target discovery by integrated phenotypic and activity-based profiling of electrophilic fragments” (Cell chemical biology, 2025)
Out of some 3,200 compounds screened, about 75 (2%) showed an effect of 50% or more. Some of the results follow.

test system: T1, S. aureus MSSA476; set-up: species or system S. aureus MSSA476 (TSB) or V. cholerae SAD30 (LB); 384-well bacterial growth screen at 25 uM, OD600 relative to DMSO control; settings: relative growth, OD600, TSB; 25 µM; inhibitor
T1 construct: MSSA476

Row | SMILES | % of control remaining [%]
1 | COc1ccc(C=C(C#N)C(=O)Nc2ccc(C(=O)O)cc2)cc1O [9-F10, 4-[2-cyano-3-(3-hydroxy-4-methoxyphenyl)prop-2-enamido]benzoic acid] | 85.6929
2 | C=CC(=O)NCc1ncc(C)o1 [2-P21, N-[(5-methyl-1,3-oxazol-2-yl)methyl]prop-2-enamide] | 87.7285
3 | CC(Cl)C(=O)NCC(NS(=O)(=O)N(C)C)C1CCCC1 (stereo not drawn) [7-G16, 2-chloro-N-{2-cyclopentyl-2-[(dimethylsulfamoyl)amino]ethyl}propanamide] | 86.6562
4 | Cc1cccc(C=C(C#N)C(=O)NC(C)C)c1 [8-J07, 2-cyano-3-(3-methylphenyl)-N-(propan-2-yl)prop-2-enamide] | 108.216
5 | C=CC(=O)Nc1cc(C)n(CC(C)c2nnc3n2CCCCC3)n1 (stereo not drawn) [2-A17, N-[5-methyl-1-(2-{5H,6H,7H,8H,9H-[1,2,4]triazolo[4,3-a]azepin-3-yl}propyl)-1H-pyrazol-3-yl]prop-2-enamide] | 146.91
6 | Cc1cc(C=C(C#N)C(N)=O)c(C)n1-c1cccc2ccccc12 [9-I12, 2-cyano-3-[2,5-dimethyl-1-(naphthalen-1-yl)-1H-pyrrol-3-yl]prop-2-enamide] | 110.262
7 | C=CC(=O)N1CCC(C(=O)N[C@H]2CC[C@@H]2O)(c2ccccc2)CC1 (racemic) [3-G08, rac-N-[(1R,2R)-2-hydroxycyclobutyl]-4-phenyl-1-(prop-2-enoyl)piperidine-4-carboxamide] | 112.843
8 | COc1cc([N+](=O)[O-])ccc1NC(=O)CCl [4-O07, 2-chloro-N-(2-methoxy-4-nitrophenyl)acetamide] | 81.9438
9 | C=CC(=O)Nc1ccc(-c2noc(C)n2)cc1 [1-K16, N-[4-(5-methyl-1,2,4-oxadiazol-3-yl)phenyl]prop-2-enamide] | 113.231
10 | O=C(CCl)NC(c1ccccc1)C1CC1 (stereo not drawn) [5-L16, 2-chloro-N-[cyclopropyl(phenyl)methyl]acetamide] | 94.3534
11 | C=CC(=O)NC1(c2ccc(C(F)(F)F)cc2)CCCC1 [2-E04, N-{1-[4-(trifluoromethyl)phenyl]cyclopentyl}prop-2-enamide] | 93.2985
12 | COc1ccc(NC(=O)C(C#N)=Cc2c(Cl)nc3ccccn23)cc1 [9-G09, 3-{2-chloroimidazo[1,2-a]pyridin-3-yl}-2-cyano-N-(4-methoxyphenyl)prop-2-enamide] | 101.273
